Values joined by “and” are separate entries in the source; they are usually repeats but may differ in a detail not shown here. Identical values can stand only once. The campaign covered roughly 420,000 compounds. About 50,000 (12%) were called active. This list was built around the results that the source calls inconclusive (neither active nor inactive); the mix of calls is not that of the screen. Calls follow the shape of the dose curve; as a rule, active = well fitted inhibition curve with a large enough effect; inconclusive = small, poorly fitted or top-dose-only effect; inactive = flat fitted curve, though single readings scatter. Where the call is inconclusive, the potency comes from a doubtful curve fit.
Assay: qHTS for Inhibitors of human tyrosyl-DNA phosphodiesterase 1 (TDP1): qHTS in cells in presence of CPT; also: nearly all actives have a fitted effect of over 55% in size
Details: chicken DT40 Tdp1-/-;hTDP1 cells + 20 nM CPT, ATP luminescence, 48 h; activity change, negative = growth inhibition: at 46.2 µM (top of the series) unless noted
Procedure, shortened: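 Chicken DT40 Tdp1-/- cells stably complemented with human TDP1 were seeded at 400 cells/well in medium containing 20 nM camptothecin, exposed to pin-transferred compounds, and grown at 37 °C for at least 48 hr. Viability was read as ATP luminescence.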
% is scaled to controls: 0 for no effect and ±100 for the full control effect; potency is read from the fitted curve at half-maximal effect; tags tell the direction and shape of the fitted curve.

| SMILES | Potency | activity change, negative = growth inhibition |
| --- | --- | --- |
| CCO[C@@H]1O[C@H](C(COCc2ccccc2)OCc2ccccc2)[C@H](OCc2ccccc2)[C@H]1O (stereo not given in full) | active: 11.4 µM |  |
| COc1cc(S(=O)(=O)N2CCN(C(=O)c3ccco3)CC2)ccc1Cl | inconclusive: 0.0073 µM [inhibitor, full curve, poor fit] |  |
| COc1ccccc1NC(=O)/C(=C/c1cccc([N+](=O)[O-])c1)c1ccccc1 | active: 13 µM |  |
| CCCCCc1ccc(-c2cn(CC3CCCCC3)nn2)cc1 | inconclusive: 35.5 µM [inhibitor, single point] and inconclusive: 29.1 µM [inhibitor, single point] |  |
| O=C(OCC(=O)N1CCN(C(=O)c2ccco2)CC1)c1ccccc1NCCO |  | inactive: -9.51% |
| Cc1cccc(C(=O)Nc2ccc(S(=O)(=O)N(Cc3ccccc3)c3ccccc3)cc2)c1 | inconclusive: 29.1 µM [inhibitor, single point] |  |
| CCCC/C(O)=C1\C(=O)CCCC1=NCCc1c(C)[nH]c2ccc(OC)cc12 | inconclusive: 6.51 µM [inhibitor, partial curve] |  |
| CCc1ccc(C(=O)Cc2cc3cccc(OC)c3oc2=O)cc1 |  | inactive: -2.42% |
| COc1ccc(CNn2c(-c3cccc(C)c3)nc3ccccc3c2=O)cc1OC | inconclusive: 13 µM [inhibitor, partial curve] |  |
| Cc1nn(Cc2ccc(Cl)cc2Cl)c(C)c1NC(=O)NC12CC3CC(CC(C3)C1)C2 | active: 20.6 µM |  |
| CC(C)NC(=O)C1(C)CCN1Cc1cccc(Cl)c1 (stereo not given) | inconclusive: 25.9 µM [inhibitor, single point] |  |
| COc1cc(/C=N/NC(=O)CCn2cnc(-c3ccccc3)c2-c2ccccc2)ccc1O |  | inconclusive: -30.8% [inhibitor] |
| Cc1ccc(OC(C)C(=O)N/N=C/c2ccccn2)cc1 (stereo not given) | inconclusive: 29.1 µM [inhibitor, single point] |  |
| O=C1CC(O)(c2ccccc2)C(c2ccccc2)=C1c1ccccc1 (stereo not given) | inconclusive: 35.5 µM [inhibitor, single point] |  |
| Cc1cc2c(cc1C)C(c1ccccc1Br)CC(=O)N2 (stereo not given) | inconclusive: 29.1 µM [inhibitor, single point] |  |
| O=C(NNC(=O)c1ccc(Br)s1)c1cccc(Cl)c1 |  | inactive: -7.91% |
| CCOC(=O)N1CCN(C(=O)CSc2nc3c(cnn3-c3ccccc3)c(=O)[nH]2)CC1 | inconclusive: 14.6 µM [inhibitor, single point] |  |
| OCCC1CN(Cc2cc(F)ccc2-n2cccn2)CCN1Cc1ccc(F)cc1 (stereo not given) | inconclusive: 13 µM [inhibitor, partial curve] |  |
| CCc1ccc(NC(=O)Nc2nnc(N(C)C3CCCCC3)s2)cc1 | inconclusive: 4.11 µM [inhibitor, full curve, poor fit] |  |
| CCCOC(=O)Nc1nc2ccccc2o1 | inconclusive: 29.1 µM [inhibitor, single point] |  |
| CCN1C(=O)CC(N2CCN(c3ccc(C(=O)c4ccccc4)cc3)CC2)C1=O (stereo not given) | inconclusive: 25.9 µM [inhibitor, single point] |  |
| COc1c(C(=O)Nc2ccccc2N2CCOCC2)cc2ccccc2c1Br | inconclusive: 18.4 µM [inhibitor, single point] |  |
| COc1cccc(NC(=O)c2oc3ccccc3c2NC(=O)c2cc3ccccc3o2)c1 | active: 13 µM |  |
| Cc1cccc(N2CCN(C(=O)C3CCN(c4ncnc5c4nc4n5CCCCC4)CC3)CC2)c1C | active: 14.6 µM and active: 18.4 µM |  |

| SMILES | Potency | activity change, negative = growth inhibition |
| --- | --- | --- |
| O=C(NNC(=O)c1cc(Cl)ccc1[N+](=O)[O-])c1csc(N2CCOCC2)n1 |  | inactive: -2.37% |
| Cc1ccc(CN2CCC(CNS(=O)(=O)c3ccc(-c4ccc(=O)[nH]n4)s3)CC2)cc1 | inconclusive: 25.9 µM [inhibitor, single point] |  |
| O=C(NCCN1Cc2ccccc2OC(c2ccsc2)C1)c1ccc2[nH]ccc2c1 (stereo not given) |  | inactive: -1.61% [at 9.04 µM] |
| CC(=O)c1cc(-c2ccccc2)n(CC(=O)NCc2cccs2)c1C | inconclusive: 14.6 µM [inhibitor, partial curve] |  |
| O=C(O)c1ccc(S(=O)(=O)N2CCCCCCC2)cc1 |  | inactive: 2.91% |
| Nc1nc2cc(Cl)ccc2cc1C(=O)NCCCc1ccccc1 | inconclusive: 23.1 µM [inhibitor, single point] |  |
| CCN(CC)c1ccc(-n2cc3c(=O)n(C)c(=O)n(C)c3c2)cc1 | inconclusive: 32.6 µM [inhibitor, single point] |  |
| CC[C@]12c3[nH]c4ccc(Cl)cc4c3CCN1C(=O)[C@@H](CC(=O)NCc1ccc(OC)c(OC)c1)C[C@@H]2C(=O)N1CCN(C(=O)c2ccco2)CC1 | inconclusive: 29.1 µM [inhibitor, single point] |  |
| CC(C#N)Sc1ccc(S(=O)(=O)N(C)C2CCCCC2)cn1 (stereo not given) | inconclusive: 13 µM [inhibitor, partial curve] |  |
| COc1ccc(-c2nnc3ccc(SCC(=O)Nc4nc5ccc(C)cc5s4)nn23)cc1OC | inconclusive: 20.6 µM [inhibitor, partial curve] |  |
| O=C(CSc1nnc(-c2ccco2)n1CC1CCCO1)c1ccc(F)cc1 (stereo not given) | active: 18.4 µM |  |
| CC(C)/C=N/NC(=O)c1ccc(Cl)cc1 | inconclusive: 29.1 µM [inhibitor, single point] |  |
| CNC(=O)/C(C#N)=C/c1c(N2CC(C)OC(C)C2)nc2ccccn2c1=O (stereo not given) |  | inactive: 3.41% |
| COCCn1c(SCC(=O)c2c[nH]c3ccccc23)nc2cc(C(=O)NC(C)C)ccc2c1=O | inconclusive: 5.8 µM [inhibitor, partial curve] |  |
| O=C(CSc1nnc(C2CC2)n1Cc1ccccc1)N1CCNC1=O |  | inactive: 3.54% |
| COC(=O)c1cc(S(=O)(=O)N2CCOCC2)ccc1Sc1ccccc1N |  | inactive: -14.8% |
| O=C(CN1C(=O)CCc2cc(S(=O)(=O)N3CCOCC3)ccc21)NCc1ccc(Cl)cc1 |  | inactive: -17.4% |
| CN1C(=O)C(O)(CC(=O)c2ccncc2)c2ccccc21 (stereo not given) | inconclusive: 29.1 µM [inhibitor, single point] |  |
| CC(C)c1ccc(Nc2nc(NCc3ccco3)nc(N3CCOCC3)n2)cc1 | inconclusive: 29.1 µM [inhibitor, single point] |  |
| CCOc1ccc(CCNC(=O)c2cc3c(s2)-c2c(C)cccc2OC3)cc1 |  | inactive: -21% |
| Cc1oc(-c2ccccc2F)nc1CS(=O)(=O)CC(=O)NC1CCCC(C)C1C (stereo not given) |  | inactive: -24.2% |
| Cc1cccc(C(=O)NCC(=O)N2CCN(S(=O)(=O)c3cc(C)ccc3C)CC2)c1 | inconclusive: 20.6 µM [inhibitor, single point] |  |
| Cc1ccc(/C=C/C(=O)N2CCN(Cc3ccccc3)CC2)o1 | inconclusive: 29.1 µM [inhibitor, single point] |  |
| COc1cccc(C(O)c2nc(-c3cccc(NC(C)=O)c3)cs2)c1 (stereo not given) | inconclusive: 13 µM [inhibitor, partial curve] |  |

| SMILES | Potency | activity change, negative = growth inhibition |
| --- | --- | --- |
| Cc1[nH]c2ccccc2c1/C=C/c1nc2ccccc2c(=O)n1-c1ccc([N+](=O)[O-])cc1 | inconclusive: 10.3 µM [inhibitor, partial curve, poor fit] |  |
| COc1ccccc1NC(=O)Cn1c(CCC(=O)O)ccc1-c1ccccc1 |  | inactive: -7.78% |
| CC1CC1C(=O)OCC(=O)c1c(N)n(C)c(=O)n(C)c1=O (stereo not given) |  | inactive: -2.39% |
| COc1cc(C(=O)N(C)CC2CCN(CCc3cccc(C(F)(F)F)c3)CC2)ccc1C | inconclusive: 25.9 µM [inhibitor, single point] |  |
| CN(Cc1nccs1)C(=O)C1CCC(=O)N(CCCc2ccccc2)C1 (stereo not given) |  | inactive: -22.8% |
| CCN(CC(=O)NCc1cccs1)c1nnnn1-c1ccccc1 | inconclusive: 25.9 µM [inhibitor, partial curve, poor fit] |  |
| CCC(CC)COC(=O)C1=C(C)NC(=O)NC1c1ccc(N(C)C)cc1 (stereo not given) | inconclusive: 23.1 µM [inhibitor, single point] |  |
| Cc1ccc(NC(=O)CSc2nnc(-c3ccc(Br)cc3)o2)c(C)c1 | inconclusive: 29.1 µM [inhibitor, single point] |  |
| Clc1ccc(-c2noc(CSc3nnc(Cc4cccs4)n3-c3ccccc3)n2)cc1 | inconclusive: 29.1 µM [inhibitor, single point] |  |
| CC(=O)Nc1ccc(S(=O)(=O)NCCC(=O)N2CCc3ccccc32)cc1 |  | inactive: 7.69% |
| CN(Cc1ccccc1)C(=O)C1CCCN1S(=O)(=O)c1ccc(Cl)cc1 (stereo not given) | inconclusive: 29.1 µM [inhibitor, single point] |  |
| COc1ccc(C2/C(=C(/O)c3ccc(Br)cc3)C(=O)C(=O)N2C)cc1OC (stereo not given) |  | inactive: 5.46% |
| Cc1ccc(NC(=O)C2CCN(c3cnccn3)CC2)cc1 |  | inactive: 0.0278% |
| Cc1ccc(NS(=O)(=O)c2cccc(C(=O)N/N=C/c3ccc4c(c3)OCCO4)c2)c(C)c1 |  | inactive: -16.1% |
| CN(CCCOc1ccccc1F)Cc1ccccc1 |  | inactive: -25.3% |
| Cc1cc2c(NCc3ccccc3)ncnc2s1 | inconclusive: 11.6 µM [inhibitor, single point] |  |
| COc1cccc(C(=O)N2CCN(Cc3cc(Br)ccc3OC)CC2)c1 | inconclusive: 29.1 µM [inhibitor, single point] |  |
| CC1(C)CC(=O)C2=C(C1)Oc1nc3ccccc3cc1C2C(C#N)C#N (stereo not given) | active: 2.91 µM |  |
| Cc1ccc(C(=O)N/N=C/c2cc(Br)ccc2O)cn1 | active: 4.11 µM |  |
| O=C(COC(=O)/C=C/c1cccc(F)c1)NC1CCCCC1 |  | inactive: 5.76% |
| Cc1ccc(OCC(=O)Nc2ccc3nc(SCCOc4ccccc4)sc3c2)cc1 | inconclusive: 13 µM [inhibitor, partial curve] |  |
| O=C(OCc1ccccc1)N(CCF)c1cn(Cc2ccccc2)c(=O)n(Cc2ccccc2)c1=O | inconclusive: 29.1 µM [inhibitor, single point] |  |
